Test results as given in PMC4336329 (PLoS ONE, 2015).
About 14,000 (4.5%) of roughly 310,000 compounds showed an effect of 50% or more. Effects have a minus sign here. The list shows a part of the results.

Biological target: human ether-à-go-go-related gene (hERG) potassium channel (human, UniProt Q12809)
Test: primary screen, population patch clamp on CHO cells stably expressing hERG
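Also: peak tail current of the secondary pulse compared with the same well before compound.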

Sequence of human ether-à-go-go-related gene (hERG) potassium channel (Q12809 whole entry, looked up): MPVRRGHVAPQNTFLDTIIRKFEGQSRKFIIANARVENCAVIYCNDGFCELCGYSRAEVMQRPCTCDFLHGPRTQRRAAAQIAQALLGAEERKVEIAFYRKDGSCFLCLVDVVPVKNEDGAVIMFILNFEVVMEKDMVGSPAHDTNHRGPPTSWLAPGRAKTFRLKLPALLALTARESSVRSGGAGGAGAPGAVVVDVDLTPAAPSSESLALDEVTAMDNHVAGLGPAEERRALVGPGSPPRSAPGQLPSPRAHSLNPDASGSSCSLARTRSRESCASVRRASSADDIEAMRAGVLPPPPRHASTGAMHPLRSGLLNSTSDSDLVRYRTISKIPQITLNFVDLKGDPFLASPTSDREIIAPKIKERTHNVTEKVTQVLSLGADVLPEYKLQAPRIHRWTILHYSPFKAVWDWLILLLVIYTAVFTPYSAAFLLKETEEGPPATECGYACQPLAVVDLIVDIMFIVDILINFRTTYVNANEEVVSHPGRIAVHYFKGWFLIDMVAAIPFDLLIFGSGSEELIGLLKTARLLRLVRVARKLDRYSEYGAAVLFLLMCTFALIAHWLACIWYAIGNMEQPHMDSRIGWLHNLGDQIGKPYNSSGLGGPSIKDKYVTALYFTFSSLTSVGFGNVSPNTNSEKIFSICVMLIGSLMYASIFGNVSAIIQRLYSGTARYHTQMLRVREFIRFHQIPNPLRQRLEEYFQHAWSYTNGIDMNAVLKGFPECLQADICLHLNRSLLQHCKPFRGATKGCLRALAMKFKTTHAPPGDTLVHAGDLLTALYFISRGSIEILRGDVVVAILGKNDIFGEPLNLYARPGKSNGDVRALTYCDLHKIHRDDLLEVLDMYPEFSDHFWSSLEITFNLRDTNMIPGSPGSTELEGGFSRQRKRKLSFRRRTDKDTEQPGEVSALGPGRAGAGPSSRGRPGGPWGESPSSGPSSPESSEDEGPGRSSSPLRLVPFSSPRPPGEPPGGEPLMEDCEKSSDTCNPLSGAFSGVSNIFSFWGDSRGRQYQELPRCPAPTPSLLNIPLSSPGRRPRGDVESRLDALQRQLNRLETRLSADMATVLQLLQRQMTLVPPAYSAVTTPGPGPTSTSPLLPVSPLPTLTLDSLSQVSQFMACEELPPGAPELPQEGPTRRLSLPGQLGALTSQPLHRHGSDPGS

| Compound | hERG current change (%, negative = inhibition) at 10uM |
| --- | --- |
| Cc1ccc(OCC(=O)Nc2ccccc2C(=O)NC2CC2)cc1C | 5.8% |
| Cc1nn(CC(C)C)c(Cl)c1C(=O)N(C)CC(=O)Nc1c(Cl)cccc1Cl | 13.1% |
| COc1ccc(C2=NN(c3nc(C(=O)O)cs3)C(O)(C(F)(F)F)C2)c(OC)c1 (stereo not drawn) | 24.1% |
| CC(CC(=O)NCCc1ccc(Cl)cc1)S(=O)(=O)c1ccc2c(c1)NC(=O)CO2 (stereo not drawn) | -34% |
| CCNc1nnc(CCn2nc(C)c(Br)c2C)s1 | -0.377% |
| Cc1ccc2c(Cl)c(C(=O)NCc3cccnc3)sc2c1 | -46.4% |
| O=C(NCc1ccc2c(c1)OCO2)c1cc2c(s1)CS(=O)(=O)C2 | 7.44% |
| CNc1cc(F)nc(F)n1 | 16.1% |
| CC1C=CCC2C(=O)N(c3cc(Cl)ccc3O)C(=O)C12 (stereo not drawn) | 7.35% |
| COc1cc(CNc2ccc(N3CCN(C(C)=O)CC3)cc2)ccc1OCc1ccc(F)cc1 | -1.25% |
| Cc1oc2c(C)c3oc(=O)c4c(c3cc2c1C)CCCC4 | 3.64% |
| O=C(c1cccc(F)c1)N1CCN(Cc2ccco2)CC1 | 4.78% |
| CC(=O)c1ccc2c(c1)OCCOCCOCCOCCO2 | -49.3% |
| Nc1nnc(SCC(=O)OCc2ccc(F)cc2)s1 | 8.09% |
| Cc1c(N(C)C(=O)C23CC4CC(CC(C4)C2)C3)c(=O)n(-c2ccccc2)n1C | -1.09% |
| CN1CCc2c(n(CC(O)CN(CCO)CCO)c3ccccc23)C1=O.Cl (stereo not drawn) | 6.94% |
| COc1ccc(NC(=S)NC(C)C(c2ccccc2)N2CCOCC2)cc1 (stereo not drawn) | 7.52% |
| CC(C)(C)C(=O)OCC12CCC(O1)C1(C)C(=O)OCC21 (stereo not drawn) | 35.2% |
| COC(=O)NC1CSCC1OC(=O)CCN1C(=O)c2ccccc2C1=O (stereo not drawn) | -1.52% |
| CCCc1nnc(SCC(=O)N2CCCC(C)C2)n1CCCOC (stereo not drawn) | 22.8% |
| Cc1cc(C(C)(C)C)ccc1OCCCCN1CCCC1 | -40% |
| Cc1ccc(C)c(-n2nnnc2SCC(=O)Nc2c(C)n(C)n(-c3ccccc3)c2=O)c1 | 3.24% |
| Cl.O=C(Cc1ccccc1)OCCN1CCCCC1 | -0.594% |

| Compound | hERG current change (%, negative = inhibition) at 10uM |
| --- | --- |
| O=C(Nc1ncc(Cc2cccc(Cl)c2)s1)C1=NCCN1 | 5.01% |
| COCCN1CN(S(=O)(=O)c2ccc(Cl)cc2)c2nc3ccccc3nc21 | -75.9% |
| COc1ccccc1OCC(O)CO (stereo not drawn) | 12.4% |
| Cc1cccc(N2C(=O)C(CC(=O)Nc3cccc(F)c3)N(CCc3ccncc3)C2=O)c1 (stereo not drawn) | -43.6% |
| Cc1cc(-c2ccccc2)nc2oc3c(c12)NC(=O)CN(c1ccccc1)C3=O | -3.26% |
| CS(=O)(=O)N(CCCC(=O)N1CCCCCC1)c1cccc(Cl)c1 | -0.119% |
| Cc1cccc(Cc2nnc(NC(=O)c3cccc(S(=O)(=O)N4CCOCC4)c3)s2)c1 | 16.2% |
| CC(C)(C)c1ccc(CN2N=Nc3ccccc3S2(=O)=O)cc1 | 5.56% |
| Cc1ccc(Cn2c(CN3CC(C)OC(C)C3)nc3c2c(=O)n(C)c(=O)n3C)cc1 (stereo not drawn) | -18% |
| CC1Cc2ccccc2N1C(=O)COC(=O)C1=COCCO1 (stereo not drawn) | -7.1% |
| CCOC(=O)C1CCN(C(=O)c2cccc(S(=O)(=O)N(CC)c3ccccc3)c2)CC1 | -39% |
| O=C(/C=C/c1ccccc1)NC(N1CCOCC1)C(Cl)(Cl)Cl (stereo not drawn) | 4.31% |
| Oc1ccc2ccccc2c1N=Nc1ccccc1F | 4.15% |
| COc1cc(NC(=O)C(=O)NNC(=O)C2CCCCC2)c(OC)cc1Cl | -2.85% |
| CNS(=O)(=O)c1cccc(C(=O)OCC(=O)NCCCc2ccccc2)c1 | -5.42% |
| c1ccc2[nH]c(CSc3ncnc4c3oc3ccccc34)nc2c1 | -21.4% |
| CCCCn1ccc(=O)c2c(C(F)(F)F)nccc21 | -8.94% |
| COc1cccc(NC(=O)COC(=O)CCn2c(C)csc2=O)c1 | 11.3% |
| COc1ccc(CCNc2ccc(S(=O)(=O)N3CCN(C)CC3)cc2[N+](=O)[O-])cc1 | -6.46% |
| CCOC(=O)N1CCN(C(=O)c2c[nH]c3ccc(S(=O)(=O)N(C)c4ccc(F)cc4)cc3c2=O)CC1 | 2.03% |
| Cc1cccc(N2CC(C(=O)Nc3ccccc3N3CCCC3)CC2=O)c1C (stereo not drawn) | -17.1% |
| COCc1cc(C)nc(SCC(=O)NCc2ccco2)c1C#N | -3.28% |
| COc1ccccc1NC(=O)Cc1noc(CSc2nnc(C)n2C)n1 | 3.75% |

| Compound | hERG current change (%, negative = inhibition) at 10uM |
| --- | --- |
| O=C(CCc1nc(-c2ccccc2Cl)no1)NCC1CCCO1 (stereo not drawn) | 1.85% |
| N#Cc1c(NC(NC(=O)c2ccco2)C(=O)c2ccccc2)sc2c1CCCC2 (stereo not drawn) | 1.5% |
| CCOC(=O)C1=C(C)NC(C)=C(C(=O)OCC)C1C(=O)OCC(=O)N(C)C | 12.2% |
| COc1cccc(C2=NOC(C(=O)N3CCOCC3)C2)c1 (stereo not drawn) | -16.9% |
| COc1ccc(NC(=O)CN(C)S(=O)(=O)c2ccc(Br)s2)cc1OC | 13.2% |
| N/C(=N/OC(=O)c1ccccc1Cl)c1ncc([N+](=O)[O-])s1 | 19.5% |
| Cc1ccc(C2CC(c3ccc(NS(C)(=O)=O)cc3)=NN2C(=O)c2ccco2)cc1 (stereo not drawn) | -78.5% |
| COCCCNC(=O)c1c[nH]c2ccc(S(=O)(=O)N3CCc4ccccc43)cc2c1=O | 14.6% |
| C=C(C)COc1ccc(-c2ncnc(C(F)(F)F)c2-c2ccc(OC)cc2)c(O)c1 | 16.3% |
| CCOC(=O)C(NC(=O)c1cccc(Cl)c1)(Nc1nnc(C)s1)C(F)(F)F (stereo not drawn) | 8.54% |
| COc1ccc(Cl)cc1C(=O)NC1=NCCS1 | -0.932% |
| Cc1c(C(=O)N2CCN(c3ccccn3)CC2)sc2ncnc(N3CCN(c4ccccc4)CC3)c12 | -32.8% |
| Cc1nc2ccc(NC(=O)N3CCSCC3)cc2s1 | 16.3% |
| O=C(COC(=O)c1ccc(Br)o1)Nc1ncc(Cl)cc1Cl | 21.5% |
| CCOC(=O)c1cnc(C(F)(F)F)nc1Oc1ccccc1 | 5.4% |
| CCn1nnc2sc3c(c2c1=O)CCC(C)C3 (stereo not drawn) | -1.31% |
| CC1CCN(CCC(=O)NN)CC1 | 8.2% |
| Cc1ccc(-c2ccc(/C=N\NC(=O)C3C(=O)NCC3c3ccccc3)o2)cc1Cl (stereo not drawn) | -16.9% |
| Cc1snc(SCc2cccc(Cl)c2)c1C#N | 7.09% |
| Cc1ccc(CCNC(=O)C2CC(=O)N(C3CCCCC3)C2)cc1 (stereo not drawn) | 9.48% |
| COc1ccc(NC(=O)c2cc(-c3ccccn3)nc3c(C)cc(C)cc23)c(C)c1 | 47.2% |
| O=C(CN1CCCCC1)NCCNc1ccc(C(F)(F)F)cc1[N+](=O)[O-] | -41.8% |
| O=C(Nc1ccccc1C(F)(F)F)c1cccnc1 | 17.4% |

| Compound | hERG current change (%, negative = inhibition) at 10uM |
| --- | --- |
| COc1ccccc1NC(=O)CSCC(N)=O | 15.4% |
| CN(C)c1cccc(C(=O)NNC(=S)NC2CC3CCC2C3)c1 (stereo not drawn) | 7.29% |
| CCN1CCC(CNCc2cn(-c3ccc(OC)cc3)nc2-c2ccccc2Cl)C1 (stereo not drawn) | -9.43% |
| O=C(CNC(=S)N(Cc1ccccc1F)C1CCCCC1)NCC1CCCO1 (stereo not drawn) | 2.47% |
| Cc1nc2ccccc2c(=O)n1-c1ccc(C(=O)O)cc1 | 0.562% |
| Cc1ccc(C(=O)C2CN(C)CC2C(=O)c2ccc(C)cc2)cc1 (stereo not drawn) | -57% |
| CN(C)S(=O)(=O)c1ccc(NC(=O)C2COc3ccccc3O2)cc1 (stereo not drawn) | -7.07% |
| O=C(Nc1nnc(C2CC2)s1)c1cc(S(=O)(=O)N2CCCCC2)ccc1N1CCOCC1 | -7.12% |
| O=C(NCc1ccc(F)cc1)c1ccc(N2CCc3ccccc32)c([N+](=O)[O-])c1 | -13.4% |
| COc1cccc(-c2nn(CCC#N)cc2C(=O)Nc2ccccc2Cl)c1 | 5.09% |
| COc1ccc(Cn2c(=O)[nH]c3cc(C(=O)NCCc4ccc(S(N)(=O)=O)cc4)ccc3c2=O)cc1 | 10.1% |
| O=C(NNC(=S)NC1CCCCC1)c1ccc(Cl)s1 | 37.1% |
| O=C(CSc1ccc(-c2ccccc2)nn1)c1cccs1 | 3.67% |
| COCCN(Cc1cc2cc3c(cc2nc1Cl)OCO3)C(=O)c1ccc(C)cc1 | -53.2% |
| COc1ccc(N(C(=O)c2cnsn2)C(C(=O)NC2CCCCC2)c2ccncc2)cc1 (stereo not drawn) | -26.7% |
| O=C(CSc1nc(C2CC2)nc2ccccc12)Nc1ccc2c(c1)OCCO2 | 3.48% |
| O=C(Nc1nnc(-c2ccc(Cl)cc2)o1)C1=COCCO1 | 2.75% |
| CS(=O)(=O)N1CCC(NC(=O)Nc2ccc(OC(F)(F)F)cc2)CC1 | -18.7% |
| CCC(C)NC(=O)CNC(=O)c1nn(-c2ccc(OC)c(Cl)c2)c(=O)c2ccccc12 (stereo not drawn) | -8.24% |
| COC(C(=O)Nc1cccc(F)c1)c1ccccc1 (stereo not drawn) | 10.9% |
| CC(C(=O)NC1C=CS(=O)(=O)C1)N1C(=O)/C(=C\c2ccccc2)SC1=S (stereo not drawn) | -4.04% |
